Test results as given in PubChem BioAssay AID624417 (National Center for Advancing Translational Sciences (NCATS), 2012).
Hit rate of the full screen: of about 410,000 compounds, about 6,400 (1.6%) were called active. The shares of active, inactive and inconclusive entries below differ from those in the screen. Calls come from the whole dose curve; as a rule, active = well fitted inhibition curve with a large enough effect; inconclusive = small, poorly fitted or top-dose-only effect; inactive = no such curve, though single readings can be large or run the other way. No potency is given beside an inconclusive call; the fits are too rough.

biological target: Glucagon-like peptide 1 receptor (Homo sapiens) (UniProt P43220); experiment: qHTS of GLP-1 Receptor Inverse Agonists (Inhibition Mode); settings: HEK293 GLP-1R CRE-luciferase, luminescence, 24 h, GLP-1R form is constitutively active; activity change, negative = inhibition: at 38.3 µM (top of the series) unless noted; note: nearly all actives have a fitted effect of over 55% in size
Chain of UniProt P43220 (P43220 whole entry, looked up): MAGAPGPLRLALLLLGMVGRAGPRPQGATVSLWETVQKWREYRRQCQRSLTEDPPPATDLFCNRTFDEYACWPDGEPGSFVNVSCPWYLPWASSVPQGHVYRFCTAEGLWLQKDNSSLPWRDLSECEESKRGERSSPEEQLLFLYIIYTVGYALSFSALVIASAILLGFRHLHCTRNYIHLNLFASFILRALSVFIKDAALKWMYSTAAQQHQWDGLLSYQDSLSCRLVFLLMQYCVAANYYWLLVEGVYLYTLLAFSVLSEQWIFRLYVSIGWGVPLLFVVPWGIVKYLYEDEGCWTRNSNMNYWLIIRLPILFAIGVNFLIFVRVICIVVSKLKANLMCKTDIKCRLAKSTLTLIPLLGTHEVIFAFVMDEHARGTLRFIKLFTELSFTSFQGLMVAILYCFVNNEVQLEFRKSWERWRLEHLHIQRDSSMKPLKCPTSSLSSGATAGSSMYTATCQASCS
Summary of the method: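 GLP-1R inverse agonism mode: basal reporter luminescence in engineered HEK293 cells measured after one day of compound exposure at 37 deg C, with a 12 min room-temperature detection step.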
% is set by controls: 0 for no effect and ±100 for the full control effect; potency is the fitted concentration of half-maximal effect; tags give direction and shape of the fitted curve.

Row | Structure (SMILES) | Potency | activity change, negative = inhibition
1 | c1ccc(-c2c[n+]3c(n2-c2ccccc2)SCC3)cc1 | inconclusive [inhibitor, full curve, poor fit] | 
2 | CC(C)CCC1(CCNC(C)c2cccs2)CCOC(C)(C)C1 (centres undefined) | active: 7.08 µM | 
3 | CC(=O)Nc1ccc(S(=O)(=O)NCCOc2ccc(Cl)cc2C)cc1 | inconclusive [inhibitor, partial curve, poor fit] | 
4 | Clc1nssc1=Nc1nncs1 |  | inactive: 18.3%
5 | Cn1c(N)c(C(C[N+](=O)[O-])c2c(F)cccc2Cl)c(=O)n(C)c1=O (centres undefined) | inconclusive [inhibitor, single point] | 
6 | CCOC(=O)c1ccc2nc(C(F)(F)F)[nH]c(=O)c2c1 |  | inactive: 1.96%
7 | COc1ccc(CNC(=O)c2cc3cc(C)ccc3n2C)cc1 | inconclusive [inhibitor, full curve] | 
8 | CN(C(=O)c1cc(-c2ccccc2)on1)C1CCCCC1 | inconclusive [inhibitor, single point] | 
9 | Cc1ccc(/C=N/N2CCN(Cc3cccc4ccccc34)CC2)s1 | inconclusive [inhibitor, partial curve, poor fit] | 
10 | Cc1cc(Cl)cc(C)c1OCCNCc1ccccc1 | inconclusive [inhibitor, partial curve, poor fit] | 
11 | O=C(NCCc1ccncc1)c1ccc2nc(Cc3cccc(Cl)c3)oc2c1 | inconclusive [inhibitor, single point] | 
12 | CCOC(=O)Nc1ccc(=O)n(Cc2c(Cl)cccc2Cl)c1 |  | inactive: 0%
13 | CCc1ccc(NC(=O)Cc2cn(C)c3ccccc23)cc1 | active: 10 µM | 
14 | CC1(C)CSC(=NCc2ccccc2)N1C(=O)c1cccc([N+](=O)[O-])c1 | inconclusive [inhibitor, single point] | 
15 | CN(C)C(CNC(=O)C1CCN(S(=O)(=O)c2cccc(Cl)c2Cl)CC1)c1ccccc1 (centres undefined) | inconclusive [inhibitor, single point] | 
16 | COc1cc(CNCc2ccc(OC)c3ccccc23)cc(OC)c1OC | inconclusive [inhibitor, single point] | 
17 | CC(C)Oc1ccc(CC(=O)NNC(=S)Nc2ccc(Br)cc2)cc1 | inconclusive [inhibitor, single point] | 
18 | COc1ccccc1CN(C)CC(=O)NC1CCCc2ccccc21 (centres undefined) | inconclusive [inhibitor, single point] | 
19 | CCN1CCN(c2ccc(Cl)cc2NC(=O)c2ccco2)CC1 | inconclusive [inhibitor, single point] | 
20 | CCc1ccccc1Nc1nc(N)nc(COC(=O)c2c(C)noc2C)n1 | inconclusive [inhibitor, partial curve] | 
21 | O=C(Nc1cc(S(=O)(=O)N2CCCCC2)ccc1O)c1ccccc1NS(=O)(=O)c1ccc(F)cc1 | inconclusive [inhibitor, single point] | 
22 | Cc1ccccc1N1C(=O)CC1(C#N)c1ccc(OCc2ccccc2)cc1 (centres undefined) | inconclusive [inhibitor, partial curve] | 

Row | Structure (SMILES) | Potency | activity change, negative = inhibition
23 | CCCC1=Nc2cc(C(=O)N3CCCC3)ccc2Sc2ccc(C)cc21 | inconclusive [inhibitor, partial curve, poor fit] | 
24 | CC1CCCC(NC(=O)NC(=O)CCl)C1C (centres undefined) | inconclusive [inhibitor, full curve] | 
25 | O=C(CN1CCCCC1)Nc1c2c(nc3ccccc13)N(c1ccccc1)CC2 | inconclusive [inhibitor, single point] | 
26 | CCOC(=O)C1=C[C@@H](CC)N(S(=O)(=O)c2ccc(C)cc2)[C@H]1c1cccc(Cl)c1 | inconclusive [inhibitor, single point] | 
27 | Cc1ccc(S(=O)(=O)N2C3CCCCC3O[C@H]2CC(=O)c2cccs2)cc1 (some centres undefined) | inconclusive [inhibitor, single point] | 
28 | C=CCn1c(=NC(=O)c2ccc(S(=O)(=O)N3CCc4ccccc4C3)cc2)sc2cc(S(N)(=O)=O)ccc21 | inconclusive [inhibitor, single point] | 
29 | O=C(NCc1cccs1)c1ccc2c(c1)N(Cc1ccccc1Cl)C(=O)c1ccccc1S2 | inconclusive [inhibitor, partial curve, poor fit] | 
30 | CCOc1ccc(CCN2C(=S)N([C@@H](Cc3ccccc3)CN3CCC[C@@H]3CN3C(=S)NC[C@@H]3CC(C)C)C[C@@H]2Cc2ccccc2)cc1 |  | inactive: -4.37%
31 | COc1ccc(S(=O)(=O)NCCC(=O)NCc2ccc(F)cc2)cc1 |  | inactive: -4.02%
32 | O=C(NCc1ccc(OC(F)(F)F)cc1)C1CC(c2ccc(C(F)(F)F)cc2)=NO1 (centres undefined) | inconclusive [inhibitor, partial curve] | 
33 | O=C(Cc1csc(-c2cccc(Cl)c2)n1)Nc1cccc(S(=O)(=O)NC2=NCCC2)c1 | inconclusive [inhibitor, single point] | 
34 | CCc1nn(C(C)C(=O)NCc2ccc(Cl)cc2)c(=O)c2cc3occc3n12 (centres undefined) | inconclusive [inhibitor, partial curve, poor fit] | 
35 | CC1(C(=O)Nc2ccc(Cl)c(Cl)c2)CCN1C(=O)CC(c1ccccc1)c1ccccc1 (centres undefined) | inconclusive [inhibitor, single point] | 
36 | O=C(CC1CCCC1)Nc1cccc(Br)c1 | inconclusive [inhibitor, single point] | 
37 | CC(C)CN1CC(COCc2ccccc2)Oc2ccccc2S1(=O)=O (centres undefined) | inconclusive [inhibitor, single point] | 
38 | CCCCN(C)c1nnc(NC(=O)Nc2cccc(C(C)=O)c2)s1 |  | inactive: 0.5%
39 | Cc1ccc(-c2cccc(C(=O)NCCc3ccccc3)n2)c2ccccc12 | inconclusive [inhibitor, single point] | 
40 | Cc1ccc(NC2=CC(c3ccccc3F)N(c3ccc(C)cc3)C2=O)cc1 (centres undefined) | inconclusive [inhibitor, single point] | 
41 | COC(=O)c1c(NC(=O)c2cc3nc(-c4ccc(OC)cc4)cc(C(F)(F)F)n3n2)sc2c1CCCC2 |  | inactive: 5.77%
42 | COc1ccc(S(=O)(=O)N2CCCCCC2)cc1N(C)S(=O)(=O)c1ccc(C)cc1 | inconclusive [inhibitor, partial curve, poor fit] | 
43 | Cc1cc(C)cc(Nc2cc(-c3ccccc3)nc(C)n2)c1 | inconclusive [inhibitor, single point] | 
44 | O=C(CN(c1ccc2c(c1)OCCO2)S(=O)(=O)c1ccccc1)Nc1ccc2c(c1)OCO2 | inconclusive [inhibitor, partial curve, poor fit] | 

Row | Structure (SMILES) | Potency | activity change, negative = inhibition
45 | C=CCn1c(SCC(=O)Nc2ccc3c(c2)CCC3)nnc1-c1cccs1 | inconclusive [inhibitor, partial curve, poor fit] | 
46 | CC(C)(C)c1ccc(OCCC(=O)Nc2ccc(N3CCOCC3)cc2N2CCOCC2)cc1 | inconclusive [inhibitor, partial curve, poor fit] | 
47 | CCc1nnc(NC(=O)CCC(=O)N2CCN(Cc3ccccc3)CC2)s1 |  | inactive: -0.635%
48 | CCOc1ccc(CCNC(=O)CN2C(=O)COc3ccc(S(=O)(=O)N4CCC(C)CC4)cc32)cc1 |  | inactive: 2.27%
49 | O=C(O)C1CCCN1S(=O)(=O)c1ccc(Br)s1 (centres undefined) (tested in a mixture with another compound) |  | inactive: -0.929%
50 | Cc1ccc(NC(=O)Cc2ccc(Cl)c(Cl)c2)cc1S(=O)(=O)N(C)C | inconclusive [inhibitor, partial curve, poor fit] | 
51 | CN1CCN(c2nc(N3CCN(CCO)CC3)nc3ccccc23)CC1 | inconclusive [inhibitor, partial curve, poor fit] | 
52 | O=C(/C=C/Nc1ccc(Oc2ccccc2)cc1)c1ccco1 | inconclusive [inhibitor, single point] | 
53 | CC1=NN(c2ccc(Cl)cc2)C(=O)/C1=C\c1cccn1-c1ccc(S(N)(=O)=O)cc1 | inconclusive [inhibitor, partial curve, poor fit] | 
54 | O=C(NCc1ccc(Cl)cc1)c1cccc(NC(=O)c2ccccc2)c1 | inconclusive [inhibitor, partial curve, poor fit] | 
55 | O=C(O)c1nc(-c2ccccc2)n(-c2ccc(Cl)cc2)n1 |  | inactive: -14.3%
56 | CCN(Cc1cc(=O)n2ccsc2n1)Cc1nc2ccccc2c(=O)[nH]1 |  | inactive: -12.9%
57 | O=C(NC(=S)Nc1ccc(CN2CCOCC2)cc1)c1ccc([N+](=O)[O-])cc1Cl |  | inactive: -25.7%
58 | COc1cccc(CN2CCC2(C)C(=O)Nc2cccc3cccnc23)c1F (centres undefined) | inconclusive [inhibitor, full curve, poor fit] | 
59 | CCC1=[N+](CC(=O)c2ccc(C)cc2)CCn2c(C)ccc21 | inconclusive [inhibitor, full curve, poor fit] | 
60 | O=c1c2sc(-c3ccccc3)cc2nc2n1CCC2 | active: 5.01 µM | 
61 | COc1ccc(C(=O)N2CCCC(Nc3ccc(C(C)C)cc3)C2)c(OC)n1 (centres undefined) | inconclusive [inhibitor, single point] | 
62 | O=C(CCSc1ccc(Br)cc1)c1ccc(O)cc1 | inconclusive [inhibitor, single point] | 
63 | COc1ccc(C(=O)N2CCC(C(=O)c3c(C)cc(C)cc3C)CC2)cc1 | inconclusive [inhibitor, single point] | 
64 | Cc1c(Cl)c([N+](=O)[O-])nn1CCCC(=O)Nc1cc(Cl)ccc1Cl | inconclusive [inhibitor, single point] | 
